For the assay, the target named is EGVD/AE-ACT. Nature of the assay: reaction of the protease with the serpin bait EGVD/AE-ACT.

Data on one molecule can be found in US20240117334A1, “FACTOR B PROTEASES” (Vertex Pharmaceuticals Incorporated, priority 2021, published 2024).

Some entries of the source have several records that differ or are many. This list holds those alone. The source may hold further records. Values given together seem to repeat one measurement (runs, samples, wells or individuals).

B1: chymase C22S/L99H/F173L/K192R/Y215H/R217T/S218V/A226R (enzyme)
chain: IIGGTESKPHSRPYMAYLEIVTSNGPSKFCGGFLIRRNFVLTAAHCAGRSITVTLGAHNITEEEDTWQKLEVIKQFRHPKYNTSTHHHDIMLLKLKEKASLTLAVGTLPFPSQFNFVPPGRMCRVAGWGRTGVLKPGSDTLQEVKLRLMDPQACSHLRDFDHNLQLCVGNPRKTKSAFRGDSGGPLLCAGVAQGIVSHGTVDAKPPRVFTRISHYRPWINQILQAN
Turning to B1, the k*app (second order rate constant) is 341 and 2410 [lines of one column].
